We go through one molecule from article PMC12491506.

Results are given in words; binding and its absence hold for the method and conditions named. In cells and extracts the contact can be indirect. Some binding calls cover weakened binding; strength is not graded here. Where a sequence is shown, tags or fusion partners need not be part of it.

Common to all, as to assay: co-IP; GFP-trap from lysates of HEK293T cells transfected with GFP-tagged LRMDA or its mutants, endogenous partners on blots (Figs 2C, 2D, 3B, 4E); lysis in 0.5% NP-40, 100 mM Tris-HCl pH 7.5 in PBS; 1 h at 4 °C
One experiment concerns the target T1, GFP-LRMDA I221A (human).
T1 sequence: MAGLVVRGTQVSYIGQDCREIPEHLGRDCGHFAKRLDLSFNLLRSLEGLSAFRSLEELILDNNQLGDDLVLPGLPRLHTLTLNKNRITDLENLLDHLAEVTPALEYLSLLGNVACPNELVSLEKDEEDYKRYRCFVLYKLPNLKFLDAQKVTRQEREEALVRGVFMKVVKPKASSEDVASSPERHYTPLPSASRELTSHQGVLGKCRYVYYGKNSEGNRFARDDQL

In a further experiment the target is T2, GFP-LRMDA L119D (human).
T2 sequence: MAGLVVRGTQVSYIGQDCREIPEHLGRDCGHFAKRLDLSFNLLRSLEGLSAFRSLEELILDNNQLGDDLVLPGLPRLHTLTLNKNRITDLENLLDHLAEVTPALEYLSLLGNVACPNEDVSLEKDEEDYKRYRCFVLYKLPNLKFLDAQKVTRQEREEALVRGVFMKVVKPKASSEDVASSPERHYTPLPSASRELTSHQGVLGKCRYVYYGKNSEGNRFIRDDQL

For a further experiment, the target named is T3, GFP-LRMDA G217S (human).
T3 sequence: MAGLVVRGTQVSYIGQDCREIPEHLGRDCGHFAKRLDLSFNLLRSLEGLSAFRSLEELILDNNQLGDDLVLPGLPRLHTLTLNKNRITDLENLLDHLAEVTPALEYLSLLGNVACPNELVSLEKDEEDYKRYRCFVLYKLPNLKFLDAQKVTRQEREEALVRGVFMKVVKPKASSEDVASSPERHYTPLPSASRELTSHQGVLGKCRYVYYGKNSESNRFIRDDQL

The target in a further experiment is T4, GFP-LRMDA D223A (human).
T4 sequence: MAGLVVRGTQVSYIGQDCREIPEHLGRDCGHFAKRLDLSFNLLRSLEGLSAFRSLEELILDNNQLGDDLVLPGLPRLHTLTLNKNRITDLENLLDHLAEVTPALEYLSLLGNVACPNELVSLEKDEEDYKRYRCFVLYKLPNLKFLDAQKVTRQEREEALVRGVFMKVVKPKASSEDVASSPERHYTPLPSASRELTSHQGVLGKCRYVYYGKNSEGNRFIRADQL

Experiment [1] addresses T5, GFP-LRMDA^127-226 (human).
T5 sequence: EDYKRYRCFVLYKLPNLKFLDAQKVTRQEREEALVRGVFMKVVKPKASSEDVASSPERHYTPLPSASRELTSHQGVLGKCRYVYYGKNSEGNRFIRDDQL

Experiment [2] has as its target T6, GFP-LRMDA R222stop (human).
T6 sequence: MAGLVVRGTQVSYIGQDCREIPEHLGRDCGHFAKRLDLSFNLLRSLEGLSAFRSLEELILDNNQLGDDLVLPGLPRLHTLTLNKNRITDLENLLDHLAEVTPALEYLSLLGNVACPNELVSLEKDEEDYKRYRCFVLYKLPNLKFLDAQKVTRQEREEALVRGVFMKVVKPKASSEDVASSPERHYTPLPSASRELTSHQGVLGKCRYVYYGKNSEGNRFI

The target in experiment [3] is T7, GFP-LRMDA Y208stop (human).
T7 sequence: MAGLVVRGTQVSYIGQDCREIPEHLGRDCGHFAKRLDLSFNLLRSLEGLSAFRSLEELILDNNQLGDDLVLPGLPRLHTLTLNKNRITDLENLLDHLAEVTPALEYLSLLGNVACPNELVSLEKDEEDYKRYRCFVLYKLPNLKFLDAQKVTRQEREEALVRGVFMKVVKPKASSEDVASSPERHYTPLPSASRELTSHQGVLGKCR

The target of the next experiment is T8, GFP-LRMDA N117K (human).
T8 sequence: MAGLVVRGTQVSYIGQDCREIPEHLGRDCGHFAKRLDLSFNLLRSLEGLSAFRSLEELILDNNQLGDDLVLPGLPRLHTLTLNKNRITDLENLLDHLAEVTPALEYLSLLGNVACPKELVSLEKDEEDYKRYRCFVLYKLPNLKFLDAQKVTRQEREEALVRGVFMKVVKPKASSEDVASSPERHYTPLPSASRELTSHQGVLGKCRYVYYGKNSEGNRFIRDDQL

B1: RAB32 (endogenous) (protein, UniProt Q13637 1-225)
chain: MAGGGAGDPGLGAAAAPAPETREHLFKVLVIGELGVGKTSIIKRYVHQLFSQHYRATIGVDFALKVLNWDSRTLVRLQLWDIAGQERFGNMTRVYYKEAVGAFVVFDISRSSTFEAVLKWKSDLDSKVHLPNGSPIPAVLLANKCDQNKDSSQSPSQVDQFCKEHGFAGWFETSAKDNINIEEAARFLVEKILVNHQSFPNEENDVDKIKLDQETLRAENKSQCC
Turning to B1, the binding result with GFP-LRMDA I221A (human) is on record as “binds”; in the experiment with GFP-LRMDA L119D (human), “no binding”; with GFP-LRMDA G217S (human), “binds”; in the experiment with GFP-LRMDA D223A (human) it was “binds”; in experiment [1] it was “no binding”; in experiment [2], “binds”. In addition, the values for the binding result (in experiment [3]; with GFP-LRMDA N117K (human)) were “binds” and “no binding”, respectively.
